Reference: PubChem BioAssay AID485294 (National Center for Advancing Translational Sciences (NCATS), 2010)
The whole screen tested about 370,000 compounds, of which about 150 (0.041%) were called active. The shares of active, inactive and inconclusive entries below differ from those in the screen. Calls follow the shape of the dose curve; as a rule, active = well fitted inhibition curve with a large enough effect; inconclusive = small, poorly fitted or top-dose-only effect; inactive = flat fitted curve, though single readings scatter. No potency is given beside an inconclusive call; the fits are too rough.
Also: nearly all actives have a fitted effect of over 25% in size.
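For activity change, negative = inhibition in this document: 0% = no-compound wells and -100% = no-enzyme wells.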
Potency is read from the fitted curve at half-maximal effect; tags tell the direction and shape of the fitted curve.

The compounds below were run against Beta-lactamase (Escherichia coli (strain K12)) (UniProt P00811) (assay: qHTS Inhibitors of AmpC Beta-Lactamase (assay with detergent)). Conditions: AmpC hydrolysis of nitrocefin, absorbance 480 nm, 0.01% Triton; activity change, negative = inhibition: at 114 µM (top of the series).
Chain of UniProt P00811 (P00811 whole entry, looked up): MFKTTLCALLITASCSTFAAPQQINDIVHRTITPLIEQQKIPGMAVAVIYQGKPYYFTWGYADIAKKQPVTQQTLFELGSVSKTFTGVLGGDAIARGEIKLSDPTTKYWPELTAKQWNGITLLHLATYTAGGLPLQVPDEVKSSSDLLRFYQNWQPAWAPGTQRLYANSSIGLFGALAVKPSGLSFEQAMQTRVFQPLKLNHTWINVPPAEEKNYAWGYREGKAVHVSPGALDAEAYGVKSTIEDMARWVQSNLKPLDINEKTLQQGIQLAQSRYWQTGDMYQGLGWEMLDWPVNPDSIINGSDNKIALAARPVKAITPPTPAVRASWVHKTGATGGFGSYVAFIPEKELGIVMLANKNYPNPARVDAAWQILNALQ
Outline: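 20 mM phosphate pH 7.0 + 0.01% (detergent screen) or 0.0001% Triton X-100; 5.3 nM AmpC reagent; cpd preinc 15 min RT; nitrocefin (800 uM stock) to start; A480 q20 s × 4 min; Activity was normalised to no-enzyme and no-compound control wells.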
`CSc1nnc2c(n1)OC(C)=Nc1ccccc1-2` was tested, and the Potency was inconclusive [inhibitor, partial curve, poor fit]. `COc1ccc(-n2c(C)csc2=S)cc1` was tested, and the Potency was inconclusive [inhibitor, full curve, poor fit]. In the case of `COC(=O)N/N=C/c1ccc([N+](=O)[O-])o1`, the “activity change, negative = inhibition” value is reported as inactive: -12.2%. `C/C(=N\O)C1CCCCC1` was tested, and the “activity change, negative = inhibition” value was inactive: 3.95%. For `CCOC(=O)Cn1cnc2c(nnn2Cc2ccc(Cl)cc2)c1=O`, the Potency was inconclusive [inhibitor, full curve, poor fit]. In the case of `Cc1cc(Cl)ccc1NC(=O)Nc1c(C)n(-c2ccccc2)c(=O)n1C`, the Potency is reported as inconclusive [inhibitor, full curve, poor fit]. In the case of `COCCn1c(SCC(=O)N(C)c2c(N)n(Cc3ccccc3)c(=O)[nH]c2=O)nnc1-c1cccc(C)c1`, the Potency is reported as inconclusive [inhibitor, single point]. In the case of `Cc1nn(Cc2ccccc2)c2c1C(c1ccco1)C(C#N)=C(N)O2` (stereo not drawn), the “activity change, negative = inhibition” value is reported as inactive: -2.57%. `Cc1nnc(N/N=C/c2ccc(Br)cc2)n1N` was tested, and the Potency was inconclusive [inhibitor, partial curve, poor fit]. `COc1cc(CCC(C)NCc2ccccc2)ccc1O` (stereo not drawn) was tested, and the Potency was inconclusive [inhibitor, single point]. With `CCOC(=O)N1CCN(Cc2nc(N)nc(Nc3ccc(C)cc3)n2)CC1` the Potency was inconclusive [inhibitor, full curve, poor fit]. For `O=C(Cn1nc(-c2ccc(Cl)cc2)ccc1=O)NCCN1CCOCC1`, the Potency was inconclusive [inhibitor, full curve, poor fit]. For `CCn1c(C(=O)N2CCC(C(=O)N3CCN(c4ccccn4)CC3)CC2)cc2sccc21`, the Potency was inconclusive [inhibitor, full curve, poor fit]. `Cc1csc(SCCn2c(N3CCOCC3)nc3c2c(=O)[nH]c(=O)n3C)n1` was tested, and the Potency was inconclusive [inhibitor, full curve, poor fit]. In the case of `CCCC(=O)N/C(N)=N/c1nc(C)c2ccccc2n1`, the “activity change, negative = inhibition” value is reported as inactive: -2.38%. With `CC(C)CC1C(C#N)=C(N)OC2=C1C(=O)CC(c1ccccc1)C2` (stereo not drawn) the Potency was inconclusive [inhibitor, full curve]. `N#Cc1cnc(N)c(Br)c1` was tested, and the Potency was inconclusive [inhibitor, full curve, poor fit]. For `O=C(COC(=O)c1ccccc1F)Nc1ccc2c(c1)OCCO2`, the Potency was inconclusive [inhibitor, full curve, poor fit]. For `CC(C)CCNC(=O)CN(Cc1ccccc1)C(=O)CCC(=O)Nc1ccccn1`, the Potency was inconclusive [inhibitor, partial curve, poor fit]. With `CCOC(=O)c1nnn(-c2nonc2N)c1CNC(C)C` the Potency was inconclusive [inhibitor, full curve, poor fit]. With `O=C(CSc1n[nH]c(-c2ccccc2Br)n1)NCCN1C(=O)CSC1=O` the “activity change, negative = inhibition” value was inactive: 0.0626%. For `COc1cc(/C=N/NS(=O)(=O)c2ccc(C)cc2)ccc1OCc1ccc(C(=O)O)cc1`, the “activity change, negative = inhibition” value was inactive: -1.13%. With `CCN(CC)CCNC(=O)c1cccc(NC(=O)C(=O)c2cc(Br)ccc2NC(C)=O)c1` the “activity change, negative = inhibition” value was inactive: -14.9%. With `COc1cccc(C(=O)NC2CC3CCCC(C2)N3CC(=O)Nc2ccccc2C(F)(F)F)c1` (stereo not drawn) the Potency was inconclusive [inhibitor, single point]. For `CN(C)CCOC(=O)c1cccc(Br)c1`, the Potency was inconclusive [inhibitor, full curve]. With `COc1ccc(CC(=O)Nc2nc3ccccc3s2)cc1S(=O)(=O)N1CCOCC1` the “activity change, negative = inhibition” value was inactive: -11.7%. In the case of `CCOC(=O)NC(=O)CSc1nnnn1-c1ccc(Cl)cc1`, the Potency is reported as inconclusive [inhibitor, partial curve]. With `O=C(CN1C(=O)COc2ccc(S(=O)(=O)N3CCCCCC3)cc21)NCCc1ccccc1` the “activity change, negative = inhibition” value was inactive: -10.5%. In the case of `COC(=O)[C@@]12CCCCN1[C@H](c1ccc(-c3ccc(F)cc3)c(OC)c1)[C@@H]1C(=O)N(C)C(=O)[C@@H]12`, the “activity change, negative = inhibition” value is reported as inactive: 1.52%. `Cc1ccc(-c2noc(CCCC(=O)NC3CCCC3)n2)cc1` was tested, and the “activity change, negative = inhibition” value was inactive: -4.29%. In the case of `Cc1cc(Br)ccc1NC(=O)C1C2CCC(O2)C1C(=O)O` (stereo not drawn), the Potency is reported as inconclusive [inhibitor, single point]. For `COCCOC(=O)c1c(C)oc2ccc(OCc3ccccc3)cc12`, the Potency was inconclusive [inhibitor, full curve, poor fit]. `CCOP(=O)(OCC)C(NC(=O)Nc1ccc(Cl)cc1)C(N)=O` (stereo not drawn) was tested, and the Potency was inconclusive [inhibitor, full curve, poor fit]. For `COc1ccc(C(=O)/C=C/c2cccnc2)c(OC)c1`, the Potency was inconclusive [inhibitor, full curve, poor fit]. With `CCOC(=O)CSc1nc(-c2ccc3c(c2)OCO3)ccc1C#N` the Potency was inconclusive [inhibitor, single point]. `COc1cccc(OC)c1C(=O)Nc1ccc2c(c1)OCCO2` was tested, and the Potency was inconclusive [inhibitor, full curve, poor fit]. In the case of `Cc1ccc(-c2nc3ccccn3c2Nc2ccc3c(c2)OCCO3)o1`, the Potency is reported as inconclusive [inhibitor, single point]. With `O=C(Nc1ccc(C(=O)N2CCCC2)cc1)c1ccccc1Br` the “activity change, negative = inhibition” value was inactive: -10.6%. With `COc1ccc(NC(=O)Cc2ccc(C)cc2)cc1S(=O)(=O)N1CCCCC1` the Potency was inconclusive [inhibitor, single point]. For `CC(C)C[C@H](N)C(=O)N1CCC(C(=O)N[C@H](C(=O)NC(C)c2ccccc2)C(C)C)CC1` (stereo partly drawn), the Potency was inconclusive [inhibitor, partial curve, poor fit]. For `COc1cccc(/C=N/NC(=O)CNC(=O)C(c2ccccc2)c2ccccc2)c1O`, the “activity change, negative = inhibition” value was inactive: 0.677%. `NC(=O)c1ccc(/C=N/O)nc1` was tested, and the “activity change, negative = inhibition” value was inactive: 1.77%. In the case of `CCOc1ccc(NC(=O)CCn2cccn2)cc1`, the “activity change, negative = inhibition” value is reported as inactive: -4.32%. For `c1ccc2c(c1)CC/C2=N/Nc1nc2ccccc2[nH]1`, the Potency was inconclusive [inhibitor, single point]. With `c1ccc(CCn2nnnc2C(c2cccnc2)N2CCOCC2)cc1` (stereo not drawn) the Potency was inconclusive [inhibitor, partial curve, poor fit]. `Clc1ccc(CN2C3=NCCN3c3ccccc32)cc1` was tested, and the Potency was inconclusive [inhibitor, full curve]. `CN(C)CCOc1ncnc2c1oc1ccccc12` was tested, and the Potency was inconclusive [inhibitor, single point]. For `CC(C)Cn1cnc2c1c(=O)n(CC(=O)NC(=O)NC(C)(C)C)c(=O)n2Cc1ccccc1`, the Potency was inconclusive [inhibitor, full curve]. For `Cc1cccc(N(C(=O)CNC(=O)c2cccs2)C(C(=O)NC2CCCC2)c2ccncc2)c1` (stereo not drawn), the Potency was inconclusive [inhibitor, full curve, poor fit]. For `COc1ccc(/C=N/NC(=O)c2cccc(COCC(F)(F)C(F)F)c2)cc1`, the Potency was inconclusive [inhibitor, full curve, poor fit]. `Cc1cc(Nc2cc(F)ccc2C)n2nc(C)nc2n1` was tested, and the Potency was inconclusive [inhibitor, full curve, poor fit]. For `C/C(=N\N=C(N)N)c1ccc(Cl)c(Cl)c1`, the “activity change, negative = inhibition” value was inactive: -1.88%. For `Oc1ccc(Br)cc1CNc1cnc2ccccc2c1`, the “activity change, negative = inhibition” value was inactive: -2.97%. `COC(=O)c1ccc(CSc2n[nH]c(=S)s2)o1` was tested, and the Potency was inconclusive [inhibitor, single point]. With `O=C(NC1CCCCCC1)c1cc(-c2ccccn2)nc2ccccc12` the Potency was inconclusive [inhibitor, partial curve, poor fit]. `COc1ccc(-c2nc(NC(C)=O)sc2-c2ccccc2)cc1` was tested, and the “activity change, negative = inhibition” value was inactive: -0.412%. For `COC(=O)C1=CO[C@@H](OC2OC(CO)C(O)C(O)C2O)[C@@H]2C(CO)=CC[C@H]12` (stereo partly drawn), the Potency was inconclusive [inhibitor, full curve, poor fit]. With `COC(=O)C[C@]1(C(=O)OC)CN(C#N)N(c2ccc(Cl)cc2)C12c1ccccc1-c1ccccc12` the Potency was inconclusive [inhibitor, single point]. For `COc1cccc(C(=O)N2CCN(Cc3ccccn3)CC2)c1`, the Potency was inconclusive [inhibitor, partial curve]. In the case of `COc1ccc(C(=O)Nc2ccc3nc4n(c(=O)c3c2)CCCC4)cc1[N+](=O)[O-]`, the Potency is reported as inconclusive [inhibitor, partial curve, poor fit]. In the case of `CCOC(=O)N1CCN(C(=O)CSc2nc(C)nc3c2c(=O)n(C)c(=O)n3C)CC1`, the Potency is reported as inconclusive [inhibitor, full curve, poor fit]. In the case of `COc1ccccc1CN1CC(C(=O)NCCc2ccccc2Cl)CCC1=O` (stereo not drawn), the Potency is reported as inconclusive [inhibitor, full curve, poor fit]. With `COc1ccccc1N1CCN(C2CCCN(C(=O)c3cc(C4CC4)on3)C2)CC1` (stereo not drawn) the Potency was inconclusive [inhibitor, partial curve]. With `CCc1nc2nc(C)c(NS(=O)(=O)c3ccc(C)c(C)c3)c(=O)n2[nH]1` the “activity change, negative = inhibition” value was inactive: -2.36%. With `Cc1ccc(NC(=O)N2CCCC2C(=O)Nc2c(C)cc(C)cc2C)cc1` (stereo not drawn) the “activity change, negative = inhibition” value was inactive: 6.88%. With `Cc1sc2nc(CSc3nc4ccccc4c(=O)n3CCCN3CCOCC3)[nH]c(=O)c2c1C` the Potency was inconclusive [inhibitor, full curve, poor fit]. For `COc1ccc(-c2nnc(SCc3c(C)noc3C)o2)cc1`, the Potency was inconclusive [inhibitor, partial curve, poor fit]. With `CCOC(=O)C(NC(=O)CC)(Nc1ccccc1OC)C(F)(F)F` (stereo not drawn) the Potency was inconclusive [inhibitor, full curve, poor fit].
